We go through 88 compounds from paper PMC4336329 (PLoS ONE, 2015).

In all, about 310,000 compounds went through this assay and about 2,200 (0.71%) showed an effect of 50% or more. The effect is printed as a negative number. The list shows a part of the results.

human ether-à-go-go-related gene (hERG) potassium channel, sequence (Q12809 whole entry, looked up): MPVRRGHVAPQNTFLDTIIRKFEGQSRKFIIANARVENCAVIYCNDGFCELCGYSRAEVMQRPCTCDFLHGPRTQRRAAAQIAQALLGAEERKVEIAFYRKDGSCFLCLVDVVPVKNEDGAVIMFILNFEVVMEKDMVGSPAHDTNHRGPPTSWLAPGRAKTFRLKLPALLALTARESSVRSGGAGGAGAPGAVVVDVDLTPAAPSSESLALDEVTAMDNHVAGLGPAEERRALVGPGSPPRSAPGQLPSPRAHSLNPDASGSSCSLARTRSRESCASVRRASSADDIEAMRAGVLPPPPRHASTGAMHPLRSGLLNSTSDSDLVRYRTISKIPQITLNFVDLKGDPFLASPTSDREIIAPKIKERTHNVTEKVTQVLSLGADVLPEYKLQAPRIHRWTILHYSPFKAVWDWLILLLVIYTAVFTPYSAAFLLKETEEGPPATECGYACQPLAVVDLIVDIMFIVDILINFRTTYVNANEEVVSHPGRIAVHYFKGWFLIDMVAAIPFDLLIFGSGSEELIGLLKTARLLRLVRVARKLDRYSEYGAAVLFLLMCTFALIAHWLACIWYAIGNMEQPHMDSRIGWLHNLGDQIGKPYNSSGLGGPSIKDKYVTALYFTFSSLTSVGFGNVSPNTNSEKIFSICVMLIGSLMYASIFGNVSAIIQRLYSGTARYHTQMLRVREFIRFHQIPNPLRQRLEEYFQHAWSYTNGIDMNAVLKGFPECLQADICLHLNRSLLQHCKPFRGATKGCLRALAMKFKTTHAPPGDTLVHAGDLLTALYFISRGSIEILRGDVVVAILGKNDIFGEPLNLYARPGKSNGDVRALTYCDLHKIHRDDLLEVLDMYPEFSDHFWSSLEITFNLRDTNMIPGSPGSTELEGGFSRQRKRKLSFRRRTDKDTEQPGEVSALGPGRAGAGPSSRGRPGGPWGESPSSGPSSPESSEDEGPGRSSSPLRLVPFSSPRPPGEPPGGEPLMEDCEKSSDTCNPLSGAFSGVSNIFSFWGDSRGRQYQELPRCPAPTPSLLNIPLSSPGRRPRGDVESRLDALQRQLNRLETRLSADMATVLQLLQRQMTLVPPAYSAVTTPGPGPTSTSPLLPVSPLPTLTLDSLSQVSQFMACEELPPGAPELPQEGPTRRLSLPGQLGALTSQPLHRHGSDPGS

This test concerns the target human ether-à-go-go-related gene (hERG) potassium channel (human, UniProt Q12809). The test is described as follows: primary screen, population patch clamp on CHO cells stably expressing hERG.
On to `COc1ccc(S(=O)(=O)N(CC(=O)NC2CC2)C2CCCCC2)cc1Cl`, for which the “hERG current change (%, negative = inhibition) at 1uM” value came to 1.59%.
Then `Cc1cc2ccccn2c1C(=O)c1ccc(Cl)c([N+](=O)[O-])c1`, with 9.65%; and `Cc1ccc(CN2CCN(Cc3ccc(C)s3)CC2CCO)cc1` (stereo not shown), with -67.3%; and `Cc1ccc(-n2cc(CN(C)Cc3nccn3C)c(-c3ccc(F)cc3)n2)cc1`, with 10.8%.
In the case of `Cc1cccc(N2CCN(C(=O)CCS(=O)(=O)c3ccc4c(c3)NC(=O)C(C)S4)CC2)c1C` (stereo not shown), the “hERG current change (%, negative = inhibition) at 1uM” value amounted to 12.2%.
For `O=C(CCCN1C(=O)CSc2ncccc21)N1CCN(c2cccc(C(F)(F)F)c2)CC1`, the “hERG current change (%, negative = inhibition) at 1uM” value is recorded as -18.6%.
Then `O=C(Nc1ccc(F)cc1Cl)C1=COCCO1`, with 8.03%.
Then `O=C(O)c1cccc(N/N=C(\N=Nc2ccccc2)c2ccccc2)c1`, with 16.7%; and `COc1ccc(-c2csc(NC(=O)/C(N=Nc3ccccc3)=C(\C)O)n2)cc1`, with 22.8%; and `CC1=CC2(O)OCCN(CCO)C2=CC1=O` (stereo not shown), with 4.45%.
In the case of `Cc1ccc2sc(N(CCN(C)C)C(=O)c3ccc4ccccc4c3)nc2c1C.Cl`, the “hERG current change (%, negative = inhibition) at 1uM” value is reported as 13.4%.
In the case of `Cc1ccc(NC(=S)Nc2c(C)n(C)n(-c3ccccc3)c2=O)cc1Cl`, the “hERG current change (%, negative = inhibition) at 1uM” value is recorded as -3.6%.
Regarding `CCOC(=O)c1cc(-c2ccccc2C)nn1Cc1cc(C)no1`, the “hERG current change (%, negative = inhibition) at 1uM” value is listed as 9%.
Then `C/C(=N\NC(=O)c1ccc2nc[nH]c2c1)c1ccc([N+](=O)[O-])cc1`, with 5.62%; and `O=C(Nc1ccc(N2CCN(C(=O)c3ccco3)CC2)cc1)c1ccco1`, with 14.7%.
As for `Cc1ccc(C(=O)Nn2cnnc2)cc1Cl`, the “hERG current change (%, negative = inhibition) at 1uM” value was 15.1%.
Take `NC(=O)C1(c2ccccc2)OC1c1ccccc1` (stereo not shown): the “hERG current change (%, negative = inhibition) at 1uM” value turned out to be 18.9%.
Then `O=C(CCC1CCCCC1)Nc1nncs1`, with 4.63%; and `CC(C)(C)OC(=O)C(C(=O)OC(C)(C)C)c1ccc(Cl)nn1`, with 12.9%.
Consider `CC(CCc1ccccc1)NC(=O)Cc1ccc([N+](=O)[O-])cc1` (stereo not shown), for which the “hERG current change (%, negative = inhibition) at 1uM” value was 4.14%.
In the case of `Cc1ccnc(NS(=O)(=O)c2ccc(NC(=O)c3ccc(S(=O)(=O)N4CCCC4)cc3)cc2)n1`, the “hERG current change (%, negative = inhibition) at 1uM” value is on record as 12%.
Then `CCOC(=O)c1[nH]c(C)c(C(=O)OCC)c1C`, with 1.3%; and `Cc1c(C(=O)O)c(C(=O)O)nc2ccc(N3CCOCC3)cc12`, with 10.3%.
For the compound `COc1ccc(C(=O)Nc2ccccc2C(=O)N/N=C/c2ccccc2OC)cc1`, the “hERG current change (%, negative = inhibition) at 1uM” value is 19.1%.
Then `COc1ccccc1NC(=O)CCSc1nnc(-c2ccncc2)o1`, with 7.19%; and `CC(C)C(=O)N1CCC2(CC1)Oc1ccc(Cl)cc1C(=O)C21CC(c2cccnc2)=NO1` (stereo not shown), with 8.56%; and `O=C(COc1ccc(/C=N/NC(=O)c2ccncc2)cc1)Nc1cccc([N+](=O)[O-])c1`, with 17.4%.
In the case of `COc1ccc(Br)cc1CN(C)CC(=O)Nc1cc([N+](=O)[O-])ccc1OC`, the “hERG current change (%, negative = inhibition) at 1uM” value is reported as 10.9%.
On to `COCCNC(=O)/C(C#N)=C\c1ccc(CNS(=O)(=O)c2ccc(C)cc2)o1`, for which the “hERG current change (%, negative = inhibition) at 1uM” value is 19.9%.
Then `CCOc1cc2c(cc1OCC)-n1cccc1C(c1cccc([N+](=O)[O-])c1)NC2.Cl` (stereo not shown), with -1.51%; and `CC(C)c1ccccc1NC(=O)C1CN(S(=O)(=O)c2ccccc2)CCN1S(=O)(=O)c1ccccc1` (stereo not shown), with 14.1%.
Then `CCN1C(=O)c2ccc(C(=O)NCc3ccccc3)cc2C1=O`, with 2.41%; and `Cc1cccc(-c2noc(CN(C(=O)c3c(-c4ccccc4Cl)noc3C)C(C)C)n2)c1`, with 5.35%.
For `COCCCNC(=O)C1CCN(C(=O)c2cc3sccc3n2Cc2ccc(F)cc2)CC1`, the “hERG current change (%, negative = inhibition) at 1uM” value is on record as -2.94%.
On to `O=C(C1=COCCO1)N1CCN(S(=O)(=O)c2cccc(Br)c2)CC1`, for which the “hERG current change (%, negative = inhibition) at 1uM” value is 0.865%.
Then `O=C1NCCCC1C(=O)NCCNC(=O)C(F)(F)F` (stereo not shown), with 17.1%.
As to `CCN1C(=O)/C(=C\c2nc3ccccc3c(=O)n2-c2ccccc2)c2ccccc21`, the “hERG current change (%, negative = inhibition) at 1uM” value came to 12.1%.
Then `Cc1cccc(N2CCN(C(=O)c3ccc(CNc4c(N5CCC(C)CC5)c(=O)c4=O)cc3)CC2)c1C`, with 32.6%; and `CCOC(=O)N1CCN(C(=O)c2cc(COc3cccc(C(C)=O)c3)on2)CC1`, with 10.5%.
Then `CN(CC(=O)NCc1ccncc1)S(=O)(=O)c1ccc(Br)cc1`, with 3.23%; and `NC1=NC(=O)C(Cc2ccc(F)cc2)S1` (stereo not shown), with 4.95%.
Then `CCCN(CCC)c1c([N+](=O)[O-])c(=O)oc2ccccc12`, with 4.19%; and `Cn1c(=O)c2c(nc(OC/C=C/c3ccccc3)n2C)n(C)c1=O`, with 8.03%; and `Cc1ccc(/C=C/C(=O)c2ccc([N+](=O)[O-])o2)cc1`, with 0.949%.
With `O=S(=O)(NCCSc1ccccc1)c1ccc2c(c1)OCCO2`, the “hERG current change (%, negative = inhibition) at 1uM” value is listed as 9.78%.
Then `c1ccc(-c2nnsc2-c2ncc[nH]2)cc1`, with 6.79%; and `O=C(OCc1c(-c2ccccc2)ncc2ccccc12)c1ccc(Br)cc1`, with 14.3%.
For the compound `Cc1cc2ncn(/N=C/c3ccc([N+](=O)[O-])o3)c2cc1C`, the “hERG current change (%, negative = inhibition) at 1uM” value amounted to 7.96%.
Then `Cc1ccc(CS(=O)(=O)CCC(=O)NCCN(C)Cc2ccccc2)cc1`, with 0.396%; and `COC(=O)C(Cc1ccccc1)NC(=O)CC(C)CC(=O)Nc1ccc(C)cc1` (stereo not shown), with 12.9%.
With `CCCNc1nc(Cl)nc(Nc2ccc(Cl)cc2)n1`, the “hERG current change (%, negative = inhibition) at 1uM” value came out at 10.7%.
As for `C/C(Cl)=C/Cn1c(NCCCn2ccnc2)nc2c1c(=O)[nH]c(=O)n2C`, the “hERG current change (%, negative = inhibition) at 1uM” value is 1.17%.
For the compound `COc1ccc(OC)c(/C=C2\S/C(=N/NC(=O)c3ccc4ccccc4c3)NC2=O)c1`, the “hERG current change (%, negative = inhibition) at 1uM” value came out at 11.6%.
Then `Oc1ccc2ccccc2c1C=NC12CN3CCN(CN(C3)C1)C2`, with 10.2%.
As for `COc1cccc(CN2CCN(Cc3ccc(C#CC(C)(C)O)s3)CC2CCO)c1` (stereo not shown), the “hERG current change (%, negative = inhibition) at 1uM” value is -3.61%.
`Cc1c(OCC(=O)NCC2CCC(C(=O)O)CC2)ccc2c3c(c(=O)oc12)CCC3` (stereo not shown): the “hERG current change (%, negative = inhibition) at 1uM” value is 7.67%.
Then `Cc1cccc(CN2CCOCCS2(=O)=O)c1`, with 12.4%; and `Cc1cccc(NC(=O)CCSc2nnc(Cc3ccccc3)o2)c1`, with 5.01%.
Then `CC(C)CNS(=O)(=O)c1ccc(CCC(=O)N2CCC(C(N)=O)CC2)cc1`, with -2.41%; and `COc1ccc(S(N)(=O)=O)cc1C(=O)OCC(=O)NC(C)(C#N)C1CC1` (stereo not shown), with 16%.
Turning to `CCCCNC(=O)CCCn1c(=S)[nH]c2cc3c(cc2c1=O)OCO3`, the “hERG current change (%, negative = inhibition) at 1uM” value worked out at 19.2%.
Take `CCNC(=O)CN(Cc1ccccc1)S(=O)(=O)c1ccccc1`: the “hERG current change (%, negative = inhibition) at 1uM” value was found to be 12.5%.
Take `Cc1cc(C)nc(NC(=O)CSc2ncccn2)n1`: the “hERG current change (%, negative = inhibition) at 1uM” value is 14.1%.
Then `COc1cc(OC)nc(-n2ncc(OC)c(Br)c2=O)n1`, with 6.67%; and `O=C(Nc1cccc(O)c1)c1ccccc1`, with -0.974%; and `CN(C)Cc1c(C(=O)N/N=C/c2ccc(OCc3c(F)cccc3Cl)cc2)nnn1-c1nonc1N`, with 14.3%.
Regarding `O=C(CCCC(=O)OCC(Cl)=C(Cl)Cl)Nc1ccccc1F`, the “hERG current change (%, negative = inhibition) at 1uM” value is recorded as 19.5%.
Then `CCOc1ccc2[nH]c3c(N4CCc5ccccc5C4)ncnc3c2c1`, with 14.1%; and `CCC(=O)NC1=C(C#N)C2(CCCC2)Cc2ccccc21`, with 4.39%; and `O=C(c1ccc(CS(=O)(=O)c2ccccc2)o1)N1CCC2(CC1)OCCO2`, with -3.2%.
Then `CCOc1ccc(/C=C2\SC(=S)NC2=O)cc1OC`, with 16.7%.
Then `COc1cc(/C=C2\SC(=S)N(CCC(=O)N3CCCCC3)C2=O)cc(OC)c1OC`, with 0.0963%; and `CC1=C(C(=O)OC2CCCC2)C(c2ccc(C)o2)C2=C(CC(c3cccs3)CC2=O)N1` (stereo not shown), with -6.87%.
Turning to `CCC(CO)Oc1cc(NC(=O)c2ccc(F)cc2)c2ncn(C(C)C)c2c1` (stereo not shown), the “hERG current change (%, negative = inhibition) at 1uM” value was 12.6%.
Then `CC1Cc2ccccc2N1C(=O)CSc1nnc(CNc2ccccc2)o1` (stereo not shown), with 3.55%; and `COc1ccccc1C(=O)N/N=C(\C)c1cccnc1`, with 5.19%; and `Cc1ccc(NC(=O)COC(=O)c2ccc(Br)o2)cc1S(=O)(=O)N1CCCCC1`, with 11.8%.
Then `CCCCCCCCCCOC(=O)C[N+](C)(C)CC1CCCCC1O.[Cl-]` (stereo not shown), with 0.667%.
Regarding `CC1CCCCC1NC(=O)COC(=O)CN1C(=O)c2ccccc2C1=O` (stereo not shown), the “hERG current change (%, negative = inhibition) at 1uM” value turned out to be 15%.
Then `CCOC(=O)c1ccc(-c2ccc(/C=C(\C#N)C(=O)NCC3CCCO3)o2)cc1` (stereo not shown), with 6.13%; and `CCOc1cc(C2NN=C(c3ccc(C)cc3)S2)ccc1O` (stereo not shown), with 5.35%.
With `CCc1ccc(C(=O)c2oc3nc(C)cc(C)c3c2N)cc1`, the “hERG current change (%, negative = inhibition) at 1uM” value was found to be 16%.
As for `Cc1ccccc1OCC(=O)N1N=C(c2cccnc2)CC1(O)C(F)(F)F` (stereo not shown), the “hERG current change (%, negative = inhibition) at 1uM” value came out at 10%.
For the compound `Cc1ccc2c(c1)c1c(n2CC(O)Cn2c(C)nc3ccccc32)C(=O)CCC1` (stereo not shown), the “hERG current change (%, negative = inhibition) at 1uM” value came to 18.9%.
Then `O=C(Nc1cccc(F)c1)C1CCCCC1`, with -0.825%; and `Cc1ccc(S[C@@H](CCN2CC[C@H](C(C)(C)C)CCC2=O)c2ccccc2)cc1`, with 14.4%.
Then `COc1ccccc1-n1c(-c2ccccc2)c[n+]2c1CCc1ccccc1-2.[Br-]`, with -34.7%; and `O=C(COC(=O)c1ccc(Cl)c(S(=O)(=O)N2CCOCC2)c1)NCc1ccco1`, with 2.09%.
